Assay results from PubChem BioAssay AID463173 (ICCB-Longwood Screening Facility, Harvard Medical School, 2010).
The campaign covered roughly 52,000 compounds. About 4,300 (8.3%) were called active. No stated cut-off is given here; in the data, active means survival mostly below about 52% (no sharp cut-off); inactive means mostly above about 56%. The list shows a part of the results.

Tested on: DeltatarO mutant
Test: S. aureus survival, RN4220 and DeltatarO strains – OD600, teichoic acid synthesis inhibitors, primary screen (AID 463173)
Conditions: S. aureus RN4220 wild type/DeltatarO growth, OD600, 18 h, hits give low values, screened at 18.75 µg/mL (by protocol)

Structure (SMILES)	survival
CCOC(=O)N1CCc2c(sc3c2c(=O)n(-c2ccc(CC)cc2)c(=O)n3Cc2cc(C)ccc2C)C1	inactive: 83%
CCOc1ccccc1NC(=O)C1CCCN(S(=O)(=O)c2cn(C)cn2)C1 (stereo unspecified)	inactive: 92%
CCOC(=O)c1c(C)oc2nc(C)nc(Nc3cc(C)ccc3OC)c12	inactive: 79%
CCCc1cc(=O)[nH]c(Nc2ccc(O)cc2C)n1	inactive: 108%
O=C(CSc1nc2ccccc2nc1Cc1ccccc1)N1CCCc2ccccc21	inactive: 75%
CCOC(=O)c1cccc(NC(=O)c2sc3nc[nH]c(=O)c3c2C)c1	inactive: 83%
CCc1ccc2occ(CC(=O)N(Cc3ccc(N(C)C)cc3)C3CCS(=O)(=O)C3)c2c1 (stereo unspecified)	inactive: 87%
COc1cc(-c2ccno2)ccc1S(=O)(=O)N1CCN(c2ccc(F)cc2)CC1	inactive: 67%
CC(C)C(=O)N1CCN(c2ccc(NC(=O)Cc3ccccc3)cc2Cl)CC1	inactive: 60%
CCOC(=O)N1CCC(NC(=O)c2ccc3c(c2)N(Cc2ccc(Cl)cc2)C(=O)c2ccccc2S3=O)CC1 (stereo unspecified)	inactive: 67%
Cc1cccc(N(C)S(=O)(=O)c2nnc(NC(=O)C3CCCCC3)s2)c1	inactive: 72%
CCc1cccc(NC(=O)COc2cc(=O)n(CC)c3ccccc23)c1	inactive: 115%
Cn1ccc2cc(S(=O)(=O)N3CCN(C(=O)Nc4ccccc4F)CC3)ccc21	inactive: 84%
CCOC(=O)c1c(Nc2cccc(C)c2)nnc(-c2ccccc2)c1-c1ccccc1	active: -4%
Fc1cccc(Nc2nc(Cl)nc(Cl)n2)c1	inactive: 93%
O=C(Cn1ncc2c3ccccc3n(Cc3cccc(Cl)c3)c2c1=O)N1CCCCCC1	inactive: 87%
O=C(NCc1ccco1)c1ccc2c(c1)N(Cc1cccc(Cl)c1)C(=O)c1ccccc1S2=O (stereo unspecified)	inactive: 63%
CCOc1ccc(CCNC(=O)Cn2c(C)c3cnn(-c4ccccc4)c(=O)c3c2C)cc1	inactive: 91%
COc1cc(OC)c(NC(=O)CSc2cc(=O)n(C)c3ccc(Cl)cc23)cc1Cl	inactive: 54%

Structure (SMILES)	survival
CCc1ccc(NC(=O)CC2C(=O)N(c3ccc(Cl)cc3)C(=O)N2C2CCCC2)cc1 (stereo unspecified)	inactive: 134%
CCc1c(CN2CCN(c3cccc(C)c3)C(C)C2)csc1C (stereo unspecified)	inactive: 76%
CCn1cc(C(=O)NC2CCCCC2)c(=O)c2ccc(C)nc21	inactive: 110%
CCc1ccc(NC(=O)c2sc3nc(C)cc(C)c3c2NC(=O)c2ccccc2OC)cc1	inactive: 69%
CCN(Cc1ccccc1)C(=O)CCS(=O)(=O)c1ccc2c(c1)CCN2C(C)=O	inactive: 90%
O=C(NC1CCCCC1)c1ccc2c(c1)N(Cc1cccc(Cl)c1)C(=O)c1ccccc1S2=O (stereo unspecified)	inactive: 101%
COc1ccc(CN2CCN(S(=O)(=O)c3ccc(NC(C)=O)cc3)CC2)c(OC)c1OC	inactive: 61%
CCc1ccc(-c2nc(CSCC(=O)NCc3ccc(C)cc3)c(C)o2)cc1	active: -3%
CC(=O)c1cc2c(cc1N/C(=N/S(=O)(=O)c1ccc(F)cc1)c1ccccc1)OCO2	inactive: 71%
COc1ccc(CNC(=O)C2CCN(S(=O)(=O)c3ccc4c(ccn4C)c3)CC2)cc1	inactive: 76%
O=C(C1CCC1)N1CCCC(c2nc3c(nnn3Cc3cccc(Cl)c3)c(=O)[nH]2)C1 (stereo unspecified)	inactive: 101%
COc1ccc(C(=O)CCC(=O)Nc2cc(C)ccc2C)cc1	inactive: 83%
Cc1cccc2sc(N(Cc3cccnc3)C(=O)COc3ccccc3)nc12	inactive: 75%
CC(=O)c1cccc(Nc2nc(-c3ccccc3Cl)nc3ccccc23)c1	active: 38%
Cc1ccccc1Cn1c2ccccc2c2cnn(CC(=O)NCCc3ccc(Cl)cc3)c(=O)c21	inactive: 84%
CC(C)c1cccc(C(C)C)c1NS(=O)(=O)c1cccs1	active: 41%
CC(CCCc1ccccc1)NC(=O)c1nn(-c2ccc(Cl)cc2)nc1CO (stereo unspecified)	inactive: 82%
Cc1ccc2[nH]c3c(=O)n(CC(=O)N4CCCC(C)C4)ncc3c2c1 (stereo unspecified)	inactive: 76%
O=C(NC1CC(=O)N(c2ccccc2)C1)c1ccc(S(=O)(=O)N2CCCC2)cc1 (stereo unspecified)	inactive: 128%

Structure (SMILES)	survival
Nc1ncc(S(=O)(=O)NCc2ccc(F)cc2)cn1	inactive: 72%
CCc1cccc(NC(=O)C(CC)n2nc(C)c3sc4ccccc4c3c2=O)c1 (stereo unspecified)	inactive: 82%
Cc1c(C(=O)NCc2ccccc2Br)oc2ccc3c(c12)C(=O)CC(C)(C)O3	inactive: 83%
COc1ccc(NC(=O)c2sc3nc4c(cc3c2N)CN(Cc2ccccc2)CC4)cc1OC	inactive: 91%
CC(C)c1ccc(NC(=O)C(Cc2ccccc2)NS(=O)(=O)c2ccc3c(c2)oc(=O)n3C)cc1 (stereo unspecified)	inactive: 80%
Cc1noc(-c2ccc(-c3noc(-c4ccc(C(F)(F)F)cc4)n3)cc2)n1	inactive: 119%
O=C(NCCCN1CCN(c2ccc(F)cc2)CC1)c1ccc2nc(CCc3ccccc3)oc2c1	inactive: 75%
COc1ccc(Nc2nc(-c3ccccc3F)nc3ccccc23)cc1OC	inactive: 99%
CCc1ccc(NC(=O)c2ccc(F)c(S(=O)(=O)N3CCN(c4cc(C)ccc4C)CC3)c2)cc1	inactive: 80%
Cc1noc2ncnc(N3CCCC(C(=O)Nc4cccc(C(F)(F)F)c4)C3)c12 (stereo unspecified)	inactive: 93%
CC(C)c1ccc(NC(=O)Cn2c(=O)oc3cc(S(=O)(=O)N4CCCC4)ccc32)cc1	inactive: 103%
CCOC(=O)CC1NC(=O)c2ccccc21 (stereo unspecified)	inactive: 69%
CCc1c(C)c(C#N)c2nc3ccccc3n2c1Nc1cccc(C(F)(F)F)c1	active: 39%
Cc1cc(C)c2c(=O)c3c(oc2c1)C(=O)N(Cc1ccco1)C3c1ccccc1F (stereo unspecified)	inactive: 106%
Cn1cc(-c2cc3n(n2)CCC(=O)N3CCCC(=O)Nc2ccccc2F)c2ccccc21	inactive: 134%
Cc1ccc(O)c(NC(=O)COCc2cc(-c3ccco3)on2)c1	inactive: 95%
COc1ccc(OC)c(NC(=O)Cn2cc(C(=O)c3ccc(Cl)cc3)c(=O)c3cc(OC)ccc32)c1	inactive: 66%
CC(=O)Nc1nonc1-c1nnc(SCc2ccccc2Cl)n1C	active: 42%
